From the supplement of paper PMC12217912
Some of the results follow. Sequences were assembled here from the parent chain. Values near 0.05 are background.

B1: TEV protease; numbered along this chain (parent)
chain: MGESLFKGPRDYNPISSSICHLTNESDGHTTSLYGIGFGPFIITNKHLFRRNNGTLVVQSLHGVFKVKDTTTLQQHLVDGRDMIIIRMPKDFPPFPQKLKFREPQREERICLVTTNFQTKSMSSMVSDTSCTFPSGDGIFWKHWIQTKDGQCGSPLVSTRDGFIVGIHSASNFTNTNNYFTSVPKNFMELLTNQEAQQWVSGWRLNADSVLWGGHKVFMVKPEEPFQPVKEATQL

Variants of: B1
Assay: raw area under fraction-flipped curve 0-4 h after induction (AUC4h, not background-subtracted), DNA-recorder readout of cleavage of the substrate (dimensionless); higher = more cleavage of the substrate by the protease variant
Settings: temperature: 34 °C; time window: 0-4 h after rhamnose induction
Protocol: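 In vivo DNA recorder in E. coli TOP10(DE3) ΔrhaA at 34 °C. Each TEVp single-site mutant (parent TEVp 0) is paired with a single-site variant of the 7-mer TEVs (canonical ENLYFQ|S). The substrate sits between flexible linkers in a Bxb1-sfGFP-TEVs-SsrA fusion, so cleavage stabilises Bxb1 and speeds flipping of a recombination array, read by NGS. The value is the raw area under the fraction-flipped curve over 0-4 h after rhamnose induction (AUC4h), with ≥20 reads per time point. It is not background-subtracted; inactive controls average about 0.047.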
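Further: Bxb1 expression induced with 0.2% (w/v) L-rhamnose at OD600 near 0.5, cultures sampled hourly, flipped fraction per protease–substrate barcode pair counted by paired-end Illumina sequencing.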

| Variant | area with substrate ENLYFAS | area with substrate ENLYFCS | area with substrate ENLYFDS | area with substrate ENLYFES | area with substrate ENLYFFS | area with substrate ENLYFGS | area with substrate ENLYFHS | area with substrate ENLYFIS | area with substrate ENLYFKS | area with substrate ENLYFLS | area with substrate ENLYFMS | area with substrate ENLYFNS | area with substrate ENLYFPS | area with substrate ENLYFRS | area with substrate ENLYFSS | area with substrate ENLYFTS | area with substrate ENLYFVS | area with substrate ENLYFWS | area with substrate ENLYFYS |
| --- | --- | --- | --- | --- | --- | --- | --- | --- | --- | --- | --- | --- | --- | --- | --- | --- | --- | --- | --- |
| Q198F | 0.0541 | 0.062 | 0.0663 | 0.0645 | 0.0717 | 0.0602 | 0.0599 | 0.0572 | 0.0588 | 0.0649 | 0.0695 | 0.0562 | 0.0616 | 0.0644 | 0.0659 | 0.0611 | 0.0704 | 0.0637 | 0.0644 |
| H168R | 0.0843 | 0.0597 | 0.0554 | 0.0608 | 0.0816 | 0.058 | 0.0629 | 0.0795 | 0.0606 |  | 0.0305 |  | 0.047 | 0.0536 | 0.0633 | 0.0596 | 0.0523 | 0.0547 | 0.0515 |
| S16K | 0.063 | 0.0704 |  | 0.0618 | 0.0662 | 0.0686 | 0.0544 | 0.0552 | 0.0594 |  | 0.0602 | 0.06 | 0.0563 | 0.0544 | 0.0323 | 0.0469 |  | 0.0607 |  |
| E224I | 0.0508 | 0.072 | 0.0729 | 0.0632 | 0.0622 |  | 0.0578 | 0.0599 | 0.057 | 0.073 |  | 0.061 | 0.0613 |  |  | 0.0792 |  |  | 0.0607 |
| D208Y | 0.062 | 0.0556 | 0.0697 | 0.0584 | 0.0686 | 0.0525 |  | 0.052 | 0.0452 |  | 0.0689 | 0.0557 | 0.0488 | 0.0485 | 0.0558 | 0.0551 | 0.074 | 0.054 | 0.0545 |
| D208C | 0.0697 | 0.054 |  | 0.0551 | 0.0631 | 0.0658 |  | 0.0734 | 0.0703 | 0.0885 | 0.0495 | 0.0657 | 0.0838 | 0.0801 |  | 0.0606 |  | 0.0467 | 0.0647 |
| F133G | 0.0093 | 0.0716 |  | 0.0804 | 0.0752 |  | 0.0472 | 0.0604 | 0.067 |  | 0.0696 | 0.0664 | 0.0597 | 0.0593 |  |  |  | 0.0636 |  |
| L191C | 0.0316 | 0.0705 | 0.0595 |  | 0.0657 |  |  | 0.0597 | 0.0494 | 0.0475 | 0.0573 | 0.0627 | 0.0642 | 0.05 | 0.0568 | 0.0414 |  |  | 0.0526 |
| T55V | 0.0551 | 0.0481 | 0.0575 | 0.0771 | 0.0746 | 0.0664 | 0.0769 | 0.0657 | 0.0855 | 0.0471 | 0.0575 | 0.0645 | 0.0623 |  | 0.0626 | 0.0495 | 0.0435 | 0.0594 | 0.0583 |
| G80D | 0.0511 | 0.0594 |  | 0.0844 | 0.0669 | 0.0622 |  | 0.0575 | 0.0627 |  | 0.0786 | 0.0674 |  | 0.0632 |  | 0.0828 |  | 0.0609 |  |
| G80M | 0.0813 |  |  | 0.0634 | 0.0556 |  | 0.0627 | 0.0521 |  |  |  |  | 0.0508 | 0.0548 | 0.0585 | 0.0602 | 0.0517 | 0.0681 | 0.0568 |
| T72E | 0.0637 |  |  | 0.0743 |  |  |  | 0.0414 |  |  |  |  |  | 0.0548 |  | 0.074 | 0.0458 |  |  |
| P40M | 0.0613 | 0.0536 |  |  |  |  |  | 0.0618 | 0.0395 | 0.0467 | 0.0641 | 0.0669 |  | 0.0668 |  | 0.0468 | 0.0345 | 0.0547 | 0.0543 |
| T132M | 0.0519 | 0.063 | 0.0488 | 0.0608 | 0.0565 | 0.0687 | 0.062 | 0.051 | 0.0601 | 0.0759 | 0.0674 | 0.0583 | 0.0465 | 0.0565 | 0.0603 | 0.0615 | 0.0471 |  | 0.0369 |
| M88R | 0.0396 |  | 0.0466 |  |  |  |  | 0.0413 | 0.0575 | 0.0412 | 0.0479 |  |  |  | 0.0546 | 0.0431 |  |  |  |
| A232E | 0.0657 |  | 0.05 | 0.0882 | 0.0612 |  | 0.0608 | 0.0564 | 0.0395 | 0.0789 | 0.0612 | 0.0603 | 0.0616 | 0.0746 | 0.0607 |  | 0.0844 | 0.0516 |  |
| A232Y | 0.0574 | 0.0671 |  | 0.0808 | 0.055 | 0.032 | 0.0529 | 0.0384 |  | 0.0636 | 0.0618 | 0.0609 | 0.0563 | 0.0476 |  |  |  |  | 0.0784 |
| A232L | 0.0503 | 0.0525 |  | 0.0631 | 0.0776 | 0.0545 |  | 0.0516 |  | 0.0481 | 0.0618 | 0.0585 | 0.0374 | 0.0595 | 0.0766 |  |  |  | 0.0702 |
| A232Q | 0.0585 | 0.0535 | 0.0573 | 0.0528 | 0.0271 |  | 0.0567 | 0.0392 | 0.0727 |  | 0.0915 | 0.0597 | 0.0773 | 0.0647 | 0.0679 | 0.0588 |  | 0.0618 | 0.0635 |
| Y34L | 0.0559 |  |  | 0.0786 | 0.0691 |  |  | 0.0191 | 0.0376 |  | 0.0641 |  | 0.092 | 0.0815 |  | 0.06 |  | 0.0501 |  |
| L56F | 0.0531 | 0.0536 | 0.072 | 0.0507 | 0.0687 |  | 0.0596 | 0.0562 | 0.0618 | 0.0383 | 0.062 | 0.0649 | 0.0534 | 0.0474 | 0.0612 | 0.06 | 0.0638 |  | 0.053 |
| L48P | 0.0567 | 0.0564 |  |  | 0.0824 | 0.0565 | 0.0549 |  |  | 0.0693 | 0.045 | 0.06 | 0.0561 |  | 0.0703 | 0.0557 | 0.0574 | 0.056 | 0.0461 |
| T192L | 0.0574 | 0.0572 |  |  | 0.0493 |  |  | 0.0473 | 0.0598 | 0.0513 |  |  | 0.0694 | 0.0588 | 0.0672 | 0.0532 |  | 0.0501 | 0.058 |
| T192K | 0.0589 | 0.051 |  | 0.0621 | 0.0803 |  | 0.0682 | 0.0336 | 0.0626 |  | 0.0585 | 0.0619 | 0.0535 |  | 0.0692 | 0.0526 | 0.053 | 0.0538 | 0.0761 |
| T192R | 0.0611 | 0.0596 | 0.0473 | 0.0578 | 0.0597 |  |  | 0.0674 |  | 0.0599 | 0.0573 | 0.0634 | 0.0754 |  | 0.0539 | 0.0598 |  | 0.0542 | 0.0566 |
